Out of some 420,000 compounds screened, about 50,000 (12%) were called active. Inconclusive means that the source gave no clear call. Such entries were picked first, then a sample of the others. The call rests on the fitted dose curve; in most records, active means well fitted inhibition curve with a large enough effect; inconclusive means small, poorly fitted or top-dose-only effect; inactive means flat fitted curve, though single readings scatter. Potencies of inconclusive entries are left out as doubtful fits.
Assay: qHTS for Inhibitors of human tyrosyl-DNA phosphodiesterase 1 (TDP1): qHTS in cells in presence of CPT; further: nearly all actives have a fitted effect of over 55% in size
Conditions: chicken DT40 Tdp1-/-;hTDP1 cells + 20 nM CPT, ATP luminescence, 48 h; activity change, negative = growth inhibition: at 46.2 µM (top of the series) unless noted
Method in brief: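 Cell growth measured by CellTiter-Glo luminescence after a minimum 48 h, 37 C compound exposure with 20 nM CPT in Tdp1-knockout DT40 cells stably expressing hTDP1, seeded 400/well; qHTS titration format.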
On the % scale 0 is the no-effect control and ±100 the full control effect; potency means the concentration at half of the fitted maximal effect; tags describe the fitted curve by direction and shape.

Q: Which “activity change, negative = growth inhibition” value does the source give for CCc1ccc2c(c1)C(c1ccc(N3CCOCC3)cc1)=NNC(c1ccncc1)=N2 here?
A: inactive: -14.9%

Q: For Cc1ccc(NC(=O)CNC(c2ccccc2)c2ccccc2)c(F)c1, which Potency is on record?
A: inconclusive [inhibitor, single point]

Q: With CC(=O)N(C)c1ccc(OCC(O)CN(Cc2ccco2)S(=O)(=O)c2ccc(C)cc2)cc1 (stereo not given) as the compound, how does the Potency read?
A: inconclusive [inhibitor, single point]

Q: Which “activity change, negative = growth inhibition” value does the source give for COc1ccc(C(=O)NCC(O)CN2CCOCC2)cc1[N+](=O)[O-] (stereo not given) here?
A: inactive: -4.9%

Q: Which Potency does the source give for FC(F)(F)c1cccc(Nc2c3c(nc4ccc(Cl)cc24)CCC3)c1 here?
A: active: 7.31 µM

Q: With CC(C)Cc1ccc(S(=O)(=O)Nc2cccnc2)cc1 as the compound, how does the Potency read?
A: inconclusive [inhibitor, single point]

Q: With Cc1cc(OCC(=O)Nc2ccc(S(=O)(=O)NC3=NCCCCC3)cc2)c(C(C)C)cc1Cl as the compound, how does the Potency read?
A: inconclusive [inhibitor, single point]

Q: With CC1=NN(c2ccccc2)C(=O)C1C=Nc1ccccc1O (stereo not given) as the compound, how does the Potency read?
A: inconclusive [inhibitor, single point]

Q: Which Potency does the source give for O=C(c1n[nH]c2ccccc12)N1CCN(S(=O)(=O)c2ccc3ccccc3c2)CC1 here?
A: inconclusive [inhibitor, single point]

Q: With CCOC(=O)Cn1c(CN2CCN(C(=O)c3ccco3)CC2)nc2c1c(=O)n(C)c(=O)n2C as the compound, how does the “activity change, negative = growth inhibition” value read?
A: inactive: 2.11%

Q: For CCc1nc2c(OCCOc3ccccc3)cccn2c1N(C)C(=O)C1CC1, which Potency is on record?
A: active: 16.4 µM

Q: For Cc1ccc(CCNC(=O)c2ccc(Nc3nc4ccccc4n4nnnc34)cc2)cc1, which Potency is on record?
A: inconclusive [inhibitor, single point]

Q: For O=C(NCc1cccs1)C1CCC(=O)N(Cc2cccc(C(F)(F)F)c2)C1 (stereo not given), which “activity change, negative = growth inhibition” value is on record?
A: inactive: -24.9%

Q: Which Potency does the source give for Cn1c(O)c(N=Nc2nc(-c3ccccc3)cs2)c2ccccc21 here?
A: inconclusive [inhibitor, single point]

Q: For O=C(c1cnccn1)N1CCC2(CC1)CCN(c1cccc(-c3ccccc3)c1)CC2, which Potency is on record?
A: inconclusive [inhibitor, partial curve, poor fit]

Q: For CCCNC(=O)C1(C)CCN(C(=O)C2(c3ccc(Cl)cc3)CCCC2)C1 (stereo not given), which Potency is on record?
A: inconclusive [inhibitor, single point]

Q: With CC1CCCN(C(=O)C2CCN(S(=O)(=O)c3ccc4c(c3)CC(C)N4C(=O)C3CC3)CC2)C1 (stereo not given) as the compound, how does the Potency read?
A: inconclusive [inhibitor, single point]

Q: For Cc1cccc(NC(=O)c2cc3c(=O)n(Cc4cccnc4)ccc3nc2C)c1, which “activity change, negative = growth inhibition” value is on record?
A: inactive: -21.7%

Q: Which Potency does the source give for CC1=CSC2=NS(=O)(=O)CCN12 here?
A: inconclusive [inhibitor, single point]

Q: With Cc1ccc(/C=N/NC(=O)c2ccncc2)s1 as the compound, how does the Potency read?
A: active: 6.51 µM

Q: For CCC(Sc1nc2n[nH]c(C)c2c(=N)n1-c1ccccc1Cl)C(=O)N(CC)CC (stereo not given), which Potency is on record?
A: active: 18.4 µM

Q: For CCOc1ccccc1C(=O)Nc1cccc(-c2ccc(N3CCOCC3)nn2)c1, which Potency is on record?
A: inconclusive [inhibitor, single point]

Q: For O=C(COC(=O)CNC(=O)c1ccccc1)Nc1ccc(Cl)cn1, which “activity change, negative = growth inhibition” value is on record?
A: inactive: -21.7%

Q: For CCCNC(=O)C1(C)CCN(Cc2ccc(-c3ccccn3)cc2)C1 (stereo not given), which Potency is on record?
A: inconclusive [inhibitor, single point]

Q: For COc1cc2c(cc1OC)C(/C=C/c1ccc(OC)c(OC)c1OC)=NCC2, which Potency is on record?
A: inconclusive [inhibitor, single point]

Q: For Cc1ccccc1NC(=O)C1Cc2ccccc2CN1C(=O)c1ccco1 (stereo not given), which “activity change, negative = growth inhibition” value is on record?
A: inactive: -16.2%

Q: With Cn1c(=O)c(/C(N)=N/OC(=O)c2ccccc2)cn(-c2ccccc2)c1=O as the compound, how does the Potency read?
A: inconclusive [inhibitor, partial curve]

Q: For CCc1cc2c(SCC(=O)C(C#N)=C3N(C)c4ccccc4N3C)ncnc2s1, which Potency is on record?
A: inconclusive [inhibitor, single point]

Q: With CN1C(=O)C(C)(C)c2cc(S(=O)(=O)N3CCC(C(=O)Nc4ccc(Cl)cc4)CC3)ccc21 as the compound, how does the “activity change, negative = growth inhibition” value read?
A: inactive: -19.6%

Q: For CC1Cn2c(C(=O)NCc3ccccc3Cl)cc3cccc(c32)S1 (stereo not given), which Potency is on record?
A: inconclusive [inhibitor, single point]

Q: With COc1ccc(Cc2nc(-c3cccs3)no2)cc1 as the compound, how does the Potency read?
A: inconclusive [inhibitor, single point]

Q: For Cc1c(C(=O)N2CCC(n3nccc3NC(=O)C3CC3)CC2)[nH]c2ccc(Cl)cc12, which Potency is on record?
A: inconclusive [inhibitor, single point]

Q: For Cc1sc2ncnc(NCC(c3ccco3)N3CCCC3)c2c1C (stereo not given), which Potency is on record?
A: inconclusive [inhibitor, single point]

Q: With O=C(NCCO)c1ccc2nc(-c3ccco3)c(-c3ccco3)nc2c1 as the compound, how does the Potency read?
A: inconclusive [inhibitor, single point]

Q: Which Potency does the source give for COc1cccc(CN2CCN(Cc3cc(OC)c(OC)cc3[N+](=O)[O-])CC2)c1 here?
A: inconclusive [inhibitor, partial curve]

Q: For O=c1[nH]nc(-c2ccc(F)cc2)cc1-c1ccccc1, which Potency is on record?
A: inconclusive [inhibitor, single point]

Q: For COc1cccc(-c2noc(CCCC(=O)NC3CCCC3)n2)c1, which Potency is on record?
A: inconclusive [inhibitor, single point]

Q: Which Potency does the source give for O=c1[nH]c(CSc2nnc(-c3cccnc3)n2C2CCCCC2)nc2ccccc12 here?
A: inconclusive [inhibitor, partial curve]

Q: For CCCN(CCC)Cc1cc(=O)oc2cc(C)ccc12, which Potency is on record?
A: inconclusive [inhibitor, single point]

Q: With O=C(NCC(c1cccs1)S(=O)(=O)c1cccs1)c1c(F)cccc1F (stereo not given) as the compound, how does the Potency read?
A: inconclusive [inhibitor, partial curve]

Q: For COc1ccc(N(CC(=O)N2CCc3ccccc32)S(=O)(=O)c2c(C)nn(C)c2C)cc1, which Potency is on record?
A: inconclusive [inhibitor, single point]

Q: Which Potency does the source give for CCCOc1ccc(C(=O)N(Cc2ccco2)Cc2ccco2)cc1 here?
A: inconclusive [inhibitor, single point]

Q: With CCOC(=O)C1CCN(S(=O)(=O)c2ccc3[nH]c(=O)ccc3c2)CC1 as the compound, how does the “activity change, negative = growth inhibition” value read?
A: inactive: 9.78%

Q: For Cc1cccc(NC(=O)Nc2ccncc2)c1, which Potency is on record?
A: inconclusive [inhibitor, single point]

Q: For COC(=O)C1CC2=C(CCC2=O)N(c2ccccc2)C1=O (stereo not given), which “activity change, negative = growth inhibition” value is on record?
A: inactive: 4.87%

Q: Which Potency does the source give for COc1cccc([C@@H]2CC=C(C(=O)O)CN2S(=O)(=O)c2ccc(C)cc2)c1 here?
A: inconclusive [inhibitor, partial curve]

Q: With O=C(O)c1sccc1Oc1ccc(NS(=O)(=O)c2cccc(F)c2)cc1 as the compound, how does the “activity change, negative = growth inhibition” value read?
A: inactive: 47.6%

Q: For COc1ccc(CCNC(=O)CCc2c(C)nc3cc(-c4cccc(F)c4)nn3c2C)cc1OC, which Potency is on record?
A: active: 8.2 µM

Q: With C=CCn1c(N(C)C)nc2c1c(=O)[nH]c(=O)n2C as the compound, how does the activity change, negative = growth inhibition read?
A: inconclusive: 4.64% [inhibitor]

Q: With Cc1ccc(OCc2nc(-c3ccc(-n4cccc4)cc3)no2)cc1C as the compound, how does the “activity change, negative = growth inhibition” value read?
A: inactive: -6.76%

Q: For CSc1ccc(OC2(C)CCN(Cc3ccccc3)C2)cc1 (stereo not given), which Potency is on record?
A: inconclusive [inhibitor, single point]

Q: With CCOc1cc2[nH]c(=S)n(C3CCN(Cc4ccccc4)CC3)c(=O)c2cc1OCC as the compound, how does the “activity change, negative = growth inhibition” value read?
A: inactive: -9.11%

Q: Which “activity change, negative = growth inhibition” value does the source give for O=C(c1cccnc1)N(Cc1ccccc1)C(=O)c1cccnc1 here?
A: inactive: -2.33%

Q: For COc1ccnc(CS(=O)c2nc3ccc(OC(F)F)cc3[nH]2)c1OC (stereo not given), which Potency is on record?
A: inconclusive [inhibitor, single point]

Q: With CSc1cccc(NC(=O)CSc2nnc(C)s2)c1 as the compound, how does the “activity change, negative = growth inhibition” value read?
A: inactive: -6.95%

Q: With CC(=O)N1N=C(c2ccco2)CC1c1cccs1 (stereo not given) as the compound, how does the Potency read?
A: inconclusive [inhibitor, full curve, poor fit]

Q: For COc1ccc(C(CNC(=O)c2cccc3cccnc23)N(C)C)cc1 (stereo not given), which “activity change, negative = growth inhibition” value is on record?
A: inactive: -13.3%

Q: With COc1cc(C#Cc2c(C=O)n(C)c3ccccc23)cc(OC)c1 as the compound, how does the Potency read?
A: inconclusive [inhibitor, single point]

Q: With COC(=O)[C@@]12C[C@@H](CC(=O)N3CCN(C(=O)C4CC4)CC3)C(=O)N(Cc3ccc4c(c3)OCO4)C1=CCC(C)(C)C2 as the compound, how does the Potency read?
A: inconclusive [inhibitor, single point]

Q: Which Potency does the source give for Cc1ccc(S(=O)(=O)Nc2ccc3c(c2)C(=O)N([C@H](C)CO)C[C@H](C)[C@@H](CN(C)C(=O)Nc2ccc(C(F)(F)F)cc2)O3)cc1 here?
A: inconclusive [inhibitor, single point]

Q: For COCCn1c(C)cc(C(=O)COC(=O)c2ccc(S(=O)(=O)N(C)C)cc2)c1C, which “activity change, negative = growth inhibition” value is on record?
A: inactive: -7.31%

Q: Which “activity change, negative = growth inhibition” value does the source give for CCOC(=O)c1sc2nc(C)cc(C)c2c1N here?
A: inactive: -0.298%

Q: With O=C1C(Cl)=C(Nc2ccc(O)cc2)C(=O)c2ccccc21 as the compound, how does the Potency read?
A: active: 20.6 µM

Q: Which Potency does the source give for CCn1nc(C)c(NC(=O)/C=C/c2ccc(OC)c(COc3ccc(Br)cc3)c2)c1C here?
A: active: 16.4 µM

Q: Which “activity change, negative = growth inhibition” value does the source give for Cc1cc(C)c2c(CC(=O)Nc3cc(C(F)(F)F)ccc3Cl)coc2c1 here?
A: inactive: -18.6%

Q: For Cc1cc(C(=O)COc2ccc(C#N)cc2)c(C)n1-c1ccc2c(c1)OCO2, which Potency is on record?
A: active: 9.2 µM

Q: With COc1cc(OC)cc(C(=O)N[C@H](C(=O)OCC(=O)N2CCN(S(=O)(=O)c3ccc(C)cc3)CC2)C(C)C)c1 as the compound, how does the “activity change, negative = growth inhibition” value read?
A: inactive: -1.68%

Q: For Cc1ccc(CCNC(=O)CCCc2nnc3n(C)c(=O)c4sccc4n23)cc1, which Potency is on record?
A: inconclusive [inhibitor, single point]

Q: For CC(=O)c1ccc(S(=O)(=O)N(C)C(C)CCc2ccco2)cc1 (stereo not given), which Potency is on record?
A: inconclusive [inhibitor, single point]

Q: With Cc1onc(-c2c(F)cccc2Cl)c1C(=O)OCC(=O)NCc1ccccc1 as the compound, how does the Potency read?
A: inconclusive [inhibitor, single point]
